PubChem BioAssay AID651820 (National Center for Advancing Translational Sciences (NCATS), 2012)
Among all 340,000 compounds or so, about 12,000 (3.5%) were called active. The shares of active, inactive and inconclusive entries below differ from those in the screen. Calls follow the shape of the dose curve; as a rule, active = well fitted inhibition curve with a large enough effect; inconclusive = small, poorly fitted or top-dose-only effect, or another doubt; inactive = no such curve, though single readings can be large or run the other way. Potencies of inconclusive entries are left out as doubtful fits.

Assay: qHTS Assay for Inhibitors of Hepatitis C Virus (HCV)
Details: Huh7.5.1 HCVcc-Cre (HCVcc is cell-culture hepatitis C virus) infection, luciferase reporter, 44 h; activity change, negative = inhibition: at 41.8 µM (top of the series) unless noted
In short: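 Cells (1,000/well) were plated 4 h before compound, then infected with HCVcc-Cre virus (~0.5 moi). After 44 h further culture, infection was read as luciferase luminescence following a 15 min substrate incubation at room temperature.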
% is scaled to controls: 0 for no effect and ±100 for the full control effect; potency is read from the fitted curve at half-maximal effect; tags tell the direction and shape of the fitted curve.

| SMILES | Potency | activity change, negative = inhibition |
| --- | --- | --- |
| Cc1ccc(C)c(NC(=O)CN(C)C(=O)Cn2c(=O)oc3ccccc32)c1 | inactive |  |
| Cc1ccc(NC(=O)c2cccc(S(=O)(=O)N3CCCC3)c2)nc1 | inactive |  |
| N#CC(c1ccc(O)cc1)N1CCN(C(C#N)c2ccc(O)cc2)CC1 (stereo not drawn) | inactive |  |
| COC(=O)C1=C(C)N(Cc2ccccc2)C(=NCCCCO)N[C@H]1c1cccc(C(F)(F)F)c1 | inconclusive [inhibitor, single point] |  |
| CCC(=O)NC(c1ccccc1OC)c1ccc2cccnc2c1O (stereo not drawn) | active: 2.51 µM |  |
| CCc1ccc(-c2cc(C)no2)cc1S(=O)(=O)N1CCN(c2ccccc2)CC1 | inconclusive [inhibitor, partial curve, poor fit] |  |
| Cc1ccc(C(=O)Nc2ccon2)cc1S(=O)(=O)N1CCCCCC1 | inconclusive [inhibitor, single point] |  |
| O=C(Nc1ccc2nc3n(c(=O)c2c1)CCCC3)c1cccc([N+](=O)[O-])c1 | inconclusive [inhibitor, partial curve] |  |
| O=C(NNC(=O)c1ccc([N+](=O)[O-])o1)c1ccccc1 | inconclusive [inhibitor, single point] |  |
| COc1ccccc1C(=O)Nc1ccc2c(c1)nc1n2CCN(Cc2ccccc2)C1 | inconclusive [inhibitor, single point] |  |
| CC(=O)Nc1ccc2nc(NC(=O)c3ccco3)sc2c1 | inactive |  |
| c1ccc(N2CCN(Cc3nnnn3C3CCCCC3)CC2)cc1 | inactive |  |
| Cc1c(C(=S)Nc2ccccc2)cnn1-c1ccccc1 | inconclusive [inhibitor, full curve, poor fit] |  |
| CCOc1ccccc1Nc1nc2ccccc2[nH]1 | inconclusive [inhibitor, single point] |  |
| Nc1ccc(S(=O)(=O)c2ccc(N)c(N)c2)cc1 | inconclusive [inhibitor, single point] |  |
| CC1=C(C#N)C(c2cccnc2)C2=C(N1)c1ccccc1C2=O (stereo not drawn) | inactive |  |
| CCN1CCN(c2cc(C)c3cc(NC(=S)NCc4cccs4)ccc3n2)CC1 | inconclusive [inhibitor, single point] |  |
| O=C(c1ccc(N2CCOCC2)cc1[N+](=O)[O-])N1CCOCC1 | inactive |  |
| COc1ccc2oc(=O)cc(CN(C)Cc3ccccc3)c2c1 | active: 7.94 µM |  |
| COc1ccc(C)cc1-n1c(C)cc(C=O)c1C | inconclusive [inhibitor, full curve, poor fit] |  |
| CCOC(=O)C1=C(COC(=O)C2(C)CC2(Cl)Cl)NC(=O)NC1c1ccccc1 (stereo not drawn) | inactive |  |
| O=C(Nc1ccc(Cl)cc1)c1ccc(CN2CCc3ccccc3C2)cc1 | active: 1.58 µM |  |
| CC1CCN(CCCN2C(=O)C3C(C(=O)Nc4ccc(Cl)cc4)C4C=CC3(O4)C2C(=O)NC2CCCCC2)CC1 (stereo not drawn) | inconclusive [inhibitor, single point] |  |
| CCOC(=O)C1(c2ccccc2)CCN(CCC(=O)Nc2ccc(C(=O)OC)cc2)CC1 | inconclusive [inhibitor, partial curve] |  |

| SMILES | Potency | activity change, negative = inhibition |
| --- | --- | --- |
| O=[N+]([O-])c1ccc(S(=O)(=O)N2CCN(c3ccnc4cc(Cl)ccc34)CC2)cc1 | inactive |  |
| Clc1ccc2c(c1)C1OCCC1C(c1ccco1)N2 (stereo not drawn) | inconclusive [inhibitor, partial curve] |  |
| Cc1c(C(=O)OCC(O)=C(C#N)c2nc3ccccc3[nH]2)oc2ccc(Br)cc12 | inactive |  |
| COc1ccc(-c2csc(NC(=S)NC(=O)c3cccs3)n2)cc1OC | inconclusive [inhibitor, single point] |  |
| CCN(c1ccccc1)S(=O)(=O)c1ccc(NC(=O)c2ccco2)cc1 | inactive |  |
| CCOC(=O)c1ccc(NC(=O)c2cccc(C)c2[N+](=O)[O-])cc1 | inconclusive [inhibitor, partial curve] |  |
| CCOC(=O)Cn1nc(-c2ccccc2)nc1-c1ccccc1 | inactive |  |
| Cn1c(=O)c(C(=O)COC(=O)c2cc(-c3ccco3)nc3ccccc23)c(N)n(Cc2ccccc2)c1=O |  | inactive: -4.4% [at 8.37 µM] |
| CCN(CC)c1ccc(/C=N/NC(=S)NCc2ccccc2)c(O)c1 | inactive |  |
| COc1ccc(C[C@](C)(N)C(=O)O)cc1OC | inconclusive [inhibitor, single point] |  |
| O=c1oc2ccccc2cc1-c1cn2ccccc2n1 | inconclusive [inhibitor, single point] |  |
| COc1ccccc1C(=O)NCCC(=O)Nc1nc2ccccc2[nH]1 | inconclusive [inhibitor, single point] |  |
| CCN(CC)c1ccc(CNc2nc3ccccc3n2CCN2CCCCC2)cc1 | active: 11.2 µM |  |
| COc1cc2cc(C(=O)N3CCOCC3)cc(-c3ccc(C)cc3)c2cc1OC | inconclusive [inhibitor, single point] |  |
| COC(=O)C(CC(=O)c1ccc(Cl)cc1)c1ccccc1 (stereo not drawn) | inactive |  |
| CCOC(=O)C1=C(C)Nc2ncnn2C1c1cc(Br)ccc1F (stereo not drawn) | inconclusive [inhibitor, single point] |  |
| CCOc1ccc(/C=N/NC(=O)C2CCCC2)c(OCC)c1 | inactive |  |
| O=C(Nc1ccc(Cl)c(Cl)c1)N1N=CCC1c1ccccc1 (stereo not drawn) | active: 10 µM |  |
| COc1ccc(CCNC(=O)Cn2nc(C)n3nc(-c4ccccc4)cc3c2=O)cc1OC | inactive |  |
| CCOC(=O)C(C)Oc1ccc2c(CC)cc(=O)oc2c1C (stereo not drawn) | inconclusive [inhibitor, partial curve] |  |
| Cc1ccc(CCNC(=O)C2CCN(S(=O)(=O)c3ccc4c(c3)CCC(=O)N4)CC2)cc1 | inactive |  |
| CC(C)C(=O)c1cc2c(cc1NC(=O)c1ccccc1)OCCO2 | inconclusive [inhibitor, full curve] |  |
| CCCCCCCCn1c2c(c(=N)c3c1CCC3)CCCC2 | active: 3.98 µM |  |
| CCN(C[C@H]1N[C@@](CC)(C(=O)OC)[C@H]2C(=O)N(C)C(=O)[C@@H]12)S(=O)(=O)c1ccccc1 | inactive |  |
